The source gives no read counts; variants with many changes may rest on few reads.

These results are taken from the RNAGym collection of RNA variant scans (doi:10.7554/elife.90254).

The chains are these.
B1: LINE1-mini (parent)
chain: GGCAGAGCUCAACACAGCGUGGCAAAGUGGCUGUGGCUAGACUGCC

Variants of B1 are the subject of the data set. Nature of the data set: self-cleavage, relative activity (ratio to wild type); higher = more cleavage; in vitro, sequencing; the parent is a self-cleaving ribozyme.
Consider G17C C18U A26U G27C, for which the self-cleavage came to 0.42.
As for G17C C23A G33U, the self-cleavage came to 0.04.
With G17U G22C G29A C31U G40U C46A, the self-cleavage worked out at 0.11.
Next, G17U A26C G27C: 0.02; G17U G29C U32A G35U A41U: 0.21; G17U G21U U43C: 0.08.
The result for G17U G29U G35U reads 0.07; that for G17U G21U U34C G36C U38G, 0.01; that for G17U A25C A26C G35A, 0.08.
Next, G17C U28A G33U G44U: 0.01; G17U G21U G29A C46A: 0.25; G17C U34C A41C: 0.09.
With G17U G21A U34A, the self-cleavage was found to be 0.05.
The result for G17U C18U C23A G33U A39G C45A reads 0; that for G17U C18A A41G, 0.01; that for G17U C18A A41U, 0.25.
The result for G17U A39U C45A reads 0.05; that for G17C A26G U38G, 0.01; that for G17U U20G C37G, 0.03.
Next, G17C G36U A39C C45U: 0.02; G17U U20C G33U C45U: 0.04; G17C G27U G30A C37A A39U: 0.03.
Turning to G17U C23U G29U U32A U34G, the self-cleavage came to 0.02.
For G17U G44A C45G C46A, the self-cleavage amounted to 0.02.
Next, G17C G22C A26U A41U: 0.04; C18A A41U C45A: 0.04.
The result for G17C G21U A24U reads 1.35.
The result for C18A C31G U34A reads 0.01.
Turning to C18A C31G A41U G44A, the self-cleavage was determined as 0.
The result for C18A A24C C42U reads 0.03; that for G17U U20C A25U G40U C42G, 0.01; that for G17U U32A U38A G40U G44U, 0.03.
Next, G17U C37U C45G C46U: 0.02.
For G17U G27C U32G, the self-cleavage was 0.05.
Take G17U G19U C31A U34G: the self-cleavage was found to be 0.08.
Take G17C G19C C37U G40C G44C: the self-cleavage turned out to be 0.
Consider G17U A25G A26U G27U U28A G35U A41U, for which the self-cleavage worked out at 0.02.
Next, G17U G19U G22A A24G G27A C45G: 0.28.
Next, G17C G27C C31U G36U U43A: 0; C18A C37U G40C G44C: 0.1; C18A G19A A26G U28G: 0.03.
Next, C18A A26G C31U A39U: 0.02; G17C G30C A41U: 0.05; G17U C31U G35A C42A C46A: 0.01.
On to G17U G19U A26C C31A C46U, for which the self-cleavage stood at 0.28.
Next, G17U G29U G33U C42U: 0.06; C18A A24C U32A: 0; C18A A26U A39C: 0.02.
For the variant G17U G19U C37G, the self-cleavage turned out to be 0.07.
The result for G17U A26C G29C reads 2.24.
The result for G17C G27A G35C reads 0.01; that for G17C G21C U32A C45G, 0.03.
As for G17U C23G G30A G33A G40A, the self-cleavage was found to be 0.08.
Consider G17U U34G G35C C37A, for which the self-cleavage worked out at 0.19.
Next, G17C G30A G33A: 0.09.
The result for G17C U28C C31U U43A reads 0.13.
The result for G17U C23G A39C reads 0.07; that for C18A C31A G40A, 0.01.
For C18A A39U A41C G44U, the self-cleavage came out at 0.02.
The result for G17U G19C U38G A39U reads 0.07; that for G17U A24U G40C, 0.04; that for G17U A24G G33C C42G C46U, 0.
Next, C18A C23G G27C C37G: 0; G17C G35A C45G: 0.03; G17C U20C G29U: 0.12.
Next, G17U U20C G33A G40U: 0.2; C18A G19A A25U C42A: 0.08.
In the case of G17C U20G G21U, the self-cleavage was found to be 0.56.
The result for G17C A25U G33A reads 0.05; that for C18A A26G C42G, 0.04; that for G17C C31U A39G G44U, 0.03.
Next, C18A A25U G35A C42A: 0.03; C18A C23A U28G: 0.77; G17C G19U C23G: 0.2.
For the variant C18A A25G G33A, the self-cleavage was determined as 0.04.
Turning to G17C G27C G29U, the self-cleavage was 0.39.
Next, G17U G33U A41G: 0.06; C18A C23A U28G G33C: 0.01.
The result for G17U C18G G19C C23U G29C C42A reads 0.04; that for G17U G19U A26U G44A, 0.03.
Next, G17U G19U A25G G40A: 0.02; G17U G22A G44U: 0.05; G17C U38G G40C: 0.05.
Consider G17C C18G G35A G44U, for which the self-cleavage was 0.02.
Next, G17U G35A G44A: 0.13.
The result for C18A C37U C46A reads 0; that for C18A C37U C46U, 0.02.
The result for G17U G21U G33C C37U C42A C45A reads 0.01; that for G17U C31U G36A U38A A39C, 0.03.
As for G17U G22A A39G, the self-cleavage was 0.04.
Next, G17U C31G A39U: 0.12.
Next, G17U G21U C31G: 0.29; G17U G21U C31A: 0.09.
The result for G17U G29C C37A reads 0.05.
Regarding G17C G27U U38G, the self-cleavage amounted to 0.01.
The result for G17C G21C U38A reads 0.42.
On to G17C G40C C46U, for which the self-cleavage worked out at 0.02.
Next, G17C G19A A24C G36U: 0.07; G17U A25G G30U G33A: 0.01; G17U G35C G40U: 0.36.
G17C C18U A25C U38C: the self-cleavage was found to be 0.
Next, G17U U28C C42G U43G: 0.02; G17U C18G A39U C45G: 0.01.
Next, G17U C31A C46G: 0.49.
As for G17C C23G G29A G30U C31A, the self-cleavage is 0.25.
The result for G17C G22U A24G reads 0.1.
The result for G17U G21U A39C reads 0.03; that for G17U G22C U34C, 0.09.
Next, G17C G21U G44C: 0.07; G17C C23U A24G: 2.21.
For G17U G29A G30C U43A, the self-cleavage came to 0.01.
Consider G17C G30A U34C U43C, for which the self-cleavage worked out at 0.06.
The result for G17C G29U C46U reads 0.11; that for G17U A26C U43C, 0.03; that for G17C G19U U20C G27A A39C, 0.16.
Next, C18A A25G C45A: 0.01; G17C G33C C37G: 0.03; G17C C18A C42U: 0.19.
Next, G17C G19C C45A: 0.07.
As for G17U G33C C45U, the self-cleavage was 0.02.
The result for G17C U20G U28A G36C A39G reads 0.03; that for C18A G19A G21U G35A, 0.08; that for G17U U20G C31A C42G, 0.04.
The result for C18A A39C U43C reads 0.02; that for G17C G22A A24C U38C G40U C46U, 0.1.
The result for C18A A24G G33A U43G reads 0.
For the variant C18A A24C G40A, the self-cleavage turned out to be 0.03.
Next, C18A C37G U38A: 0.01; G17U C18U G29U G35C C37U: 0.02; G17U C23U C45G: 0.02.
The result for G17C G21C G27A G30C C31A G33U reads 0.04; that for G17U U32G A39C, 0.06; that for G17U G27C G40U C42U, 0.02.
Next, G17U G22U G44A: 0.07; G17C U20C G21A A24U C45A: 0.02; G17C A26U C42A: 0.06.
G17C A25C U32A A39C: the self-cleavage is 0.03.
The result for G17U A26C G40C C46A reads 0.02; that for G17U G21C U28C G30A, 0.67.
The result for C18A A25C C42G reads 0.06; that for G17C C23A A26C G27U G35C C46G, 0.02.
The result for G17U C18G A39G reads 0.05.
Take C18A A24U C46A: the self-cleavage is 0.22.
Next, C18A A25C U34A A39G C46G: 0.01; G17U U43A G44U: 0.01; G17C U20A G30A G44U: 0.13.
Next, G17A U43A C46A: 0.01.
The result for G17U G19A U20G U32A A41U reads 0.01; that for G17C A26G G40A, 0.02; that for C18A C37A U43A, 0.03.
For G17U C37U G44C, the self-cleavage stood at 0.05.
Next, G17U A25C A41U: 0.13; G17U C18U C23G A24U: 0.04; G17C G21A G29U G33U G35C G44A: 0.04.
The result for G17C G33A G36U reads 0.09.
On to G17C G22C A24C, for which the self-cleavage stood at 0.29.
Take G17U C23U G29U: the self-cleavage came out at 0.37.
The result for G17U U28G C46G reads 0.07; that for G17C C37G A39U, 0.04; that for G17U G21U G40U, 0.01.
G17C G30A C46A: the self-cleavage is 0.1.
The result for G17C C31A C45A reads 0.05; that for C18A A25C G44A, 0.06; that for G17U U34A C45A, 0.02.
The result for G17U C45U C46A reads 0.04; that for G17C G21U G30A C46U, 0.64; that for G17C C23U A24G C46G, 0.05.
